In patent publication US20220002408A1 (EXCYTELLC, published 2022):

Molecular target: T1, CD19 on Raji cells (CD19-positive cells) (human, UniProt P15391 20-556)
T1 sequence (looked up): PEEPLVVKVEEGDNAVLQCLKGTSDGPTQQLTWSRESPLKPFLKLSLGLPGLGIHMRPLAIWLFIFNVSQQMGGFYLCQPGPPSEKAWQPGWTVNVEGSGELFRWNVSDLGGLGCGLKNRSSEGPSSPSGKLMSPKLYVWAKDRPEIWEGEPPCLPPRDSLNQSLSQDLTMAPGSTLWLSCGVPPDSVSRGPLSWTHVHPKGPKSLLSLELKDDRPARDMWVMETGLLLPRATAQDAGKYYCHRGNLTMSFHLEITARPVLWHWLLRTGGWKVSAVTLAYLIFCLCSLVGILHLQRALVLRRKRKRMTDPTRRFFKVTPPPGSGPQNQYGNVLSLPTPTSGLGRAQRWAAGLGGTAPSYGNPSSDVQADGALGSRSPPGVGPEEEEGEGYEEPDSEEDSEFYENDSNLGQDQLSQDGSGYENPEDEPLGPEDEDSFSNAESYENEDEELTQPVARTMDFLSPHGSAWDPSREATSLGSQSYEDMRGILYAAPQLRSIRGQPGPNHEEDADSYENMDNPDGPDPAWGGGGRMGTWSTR
Experiment: cell-based or functional assay

B1: bispecific antibody YK002 (bispecific antibody, human IgG4 S228P, kappa)
heavy: QVQLQQSGAELVRPGSSVKISCKASGYAFSSYWMNWVKQRPGQGLEWIGQIWPGDGDTNYNGKFKGKATLTADESSSTAYMQLSSLASEDSAVYFCARRETTTVGRYYYAMDYWGQGTTVTVSSASTKGPSVFPLAPCSRSTSESTAALGCLVKDYFPEPVTVSWNSGALTSGVHTFPAVLQSSGLYSLSSVVTVPSSSLGTKTYTCNVDHKPSNTKVDKRV[human IgG4 Fc with S228P (EU numbers) omitted]GGGGSGGGGSGGGGSDIQMTQSPSSLSASVGDRVTITCRASQDIRNYLNWYQQKPGKAPKLLIYYTSRLESGVPSRFSGSGSGTDYTLTISSLQPEDFATYYCQQGNTLPWTFGCGTKVEIKGGGGSGGGGSGGGGSEVQLVESGGGLVQPGGSLRLSCAASGYSFTGYTMNWVRQAPGKCLEWVALINPYKGVTTYADSVKGRFTISVDKSKNTAYLQMNSLRAEDTAVYYCARSGYYGDSDWYFDVWGQGTLVTVSS
light: DIQLTQSPASLAVSLGQRATISCKASQSVDYDGDSYLNWYQQIPGQPPKLLIYDASNLVSGIPPRFSGSGSGTDFTLNIHPVEKVDAATYHCQQSTEDPWTFGGGTKLEIKRTVAAPSVFIFPPSDEQLKSGTASVVCLLNNFYPREAKVQWKVDNALQSGNSQESVTEQDSKDSTYSLSSTLTLSKADYEKHKVYACEVTHQGLSSPVTKSFNRGEC
  IC50 of target cell killing (PBMC killing of Raji-Luc cells, luciferase read-out, 18 h): 2.45 pM
